The results in this text go back to PubChem BioAssay AID463173 (ICCB-Longwood Screening Facility, Harvard Medical School, 2010).

Structures are written as SMILES. The campaign covered roughly 52,000 compounds. About 1,700 (3.3%) were called active. Rule as the data show it: active = survival mostly below about 52% (no sharp cut-off); inactive = mostly above about 56%. The list shows a part of the results.

This assay deals with Wild type. Kind of assay: growth inhibition of S. aureus wild type versus tarO mutant, primary screen, teichoic acid synthesis inhibitors, RN4220, OD600 (AID 463173). The conditions noted are these: S. aureus RN4220 wild type/DeltatarO growth, OD600, 18 h, active compounds read low, screened at 18.75 µg/mL (by protocol).
For the compound `COc1cc(-c2nnc(SCCOc3ccc(Cl)cc3)o2)cc(OC)c1OC`, the survival is inactive: 91%. With `O=C(COc1ccccc1)OCc1cc(=O)n2nc(C3CC3)sc2n1`, the survival is inactive: 85%. Turning to `CCCNC(=O)N1c2ccc(F)cc2CCC1C` (stereo not given), the survival was inactive: 113%.

On to `Cc1cccc(N2CCN(C(=O)Cc3c(C(=O)O)c(C)cn3C)CC2)c1C`, for which the survival is inactive: 70%.

For the compound `Cc1ccc(C(=O)c2c(N)c(-c3nc(-c4ccc5c(c4)OCO5)cs3)c3ccccn23)cc1C`, the survival is inactive: 95%. In the case of `COCc1nn2cc(-c3ccc(C)cc3)nc2s1`, the survival was inactive: 111%. Turning to `Cc1ccc(C(=O)Nc2cc(-c3nc4ncccc4o3)ccc2C)c(C)c1`, the survival was inactive: 73%. With `CC(=O)c1ccc(N2CCN(C(=O)C3CCN(S(=O)(=O)c4c(C)noc4/C=C/c4ccc(C)cc4)CC3)CC2)cc1`, the survival was inactive: 127%. With `CC(=O)N1CCc2c(sc3c2c(=O)n(Cc2ccccc2)c(=O)n3Cc2ccc(C)cc2)C1`, the survival is inactive: 92%. For the compound `COC(=O)c1ccc(Cn2cnc3nc4c(cc3c2=O)CCCC4)cc1`, the survival is inactive: 85%. With `CCOc1ccccc1CNC(=O)C1CCN(S(=O)(=O)c2ccc3[nH]c(=O)ccc3c2)CC1` the figure was inactive: 19%; with `CCOC(=O)c1c(C)oc2ncnc(Nc3ccc(OC)cc3OC)c12`, inactive: 94%. `COc1ccccc1NC(=O)CSC1=Nc2ccccc2C2=NC(CCC(=O)NCCc3ccccc3)C(=O)N12` (stereo not given): the survival is inactive: 74%. For `CCOc1ccccc1NC(=O)Cn1ncc2c(=O)oc3ccc(C)cc3c21`, the survival is inactive: 89%. Next, `Cc1nc(NCC2CCCO2)c2nnn(Cc3c(F)cccc3Cl)c2n1` (stereo not given): inactive: 103%. For the compound `CC1(C)CC(=O)c2cc(-c3ccccc3)n(CC(=O)O)c2C1`, the survival is inactive: 113%. For `O=C(Nc1nc2c(s1)CCCCCC2)Nc1ccc(F)cc1F`, the survival is active: -2%. Regarding `CCOc1ccc(NC2=NCCC(=O)N2Cc2cccs2)cc1`, the survival is inactive: 115%. With `O=C1CSC(=O)N1CC(O)Cn1c2ccccc2c2ccccc21` (stereo not given), the survival is inactive: 111%.

Take `COc1ccc(N2CCN(C(c3ccccc3)c3sc4nc(-c5ccco5)nn4c3O)CC2)cc1` (stereo not given): the survival is inactive: 69%.

In the case of `CCN(CC)C(=O)Nc1ccc(I)cc1`, the survival is inactive: 115%. Consider `Cc1ccc(C(=O)N2CCc3cc(CNS(=O)(=O)c4cccs4)ccc32)cc1`, for which the survival is inactive: 77%. As to `CN1C(=O)Cc2cc(S(=O)(=O)NCCc3ccc(Cl)cc3)ccc21`, the survival was inactive: 136%. Next, `COc1ccc(-c2noc(CSc3nnc(C)n3-c3ccc(C)cc3)n2)cc1OC`: inactive: 84%; `O=C(NC1CCCCC1NC(=O)c1ccco1)c1ccco1` (stereo not given): inactive: 105%; `CCCOc1ccc(NC(=O)CC2C(=O)N(c3cccc(OC)c3)C(=O)N2Cc2cccs2)cc1` (stereo not given): inactive: 76%.

Regarding `O=C(CSCc1cnn(-c2ccccc2)c1-n1cccc1)NCc1ccc(Cl)cc1`, the survival is inactive: 88%. For the compound `O=C(Nc1ccc(O)c(-c2nc3ccccc3o2)c1)c1sc2ccccc2c1Cl`, the survival is inactive: 121%. For `CCCC(=O)c1cc2c(cc1N)OCCO2`, the survival is inactive: 95%.

For `COc1ccccc1N1CCN(C(=O)c2cn(CC(C)C)c(=O)c3c2c2ccccc2n3C)CC1`, the survival is inactive: 87%. Turning to `CCOc1ccccc1C(=O)NC1(C(F)(F)F)NC(=O)N(CCc2ccc(OC)c(OC)c2)C1=O` (stereo not given), the survival was inactive: 77%. As for `COc1cc(OC)cc(-c2cc3nc(C)c(CCC(=O)NCc4ccccc4)c(C)n3n2)c1`, the survival is inactive: 89%.

For the compound `Cc1nc2ccn(Cc3ccccc3)c(=O)c2cc1C(=O)N1CCN(c2ccccc2F)CC1`, the survival is inactive: 80%. Consider `Cc1cccc(C2C=C(c3ccc(C)c(C)c3)Nc3nnnn32)c1` (stereo not given), for which the survival is active: 1%. For `Cc1cc(F)ccc1S(=O)(=O)Nc1ccc2oc3c(c2c1)CC(C)CC3` (stereo not given), the survival was active: -6%. As for `Cc1cc2ncn(S(=O)(=O)N3CCOCC3)c2cc1C`, the survival was inactive: 101%. With `CC(C)c1ccc(NC(=O)c2ccc3c(c2)CCN3S(=O)(=O)c2ccccc2)cc1` the figure was inactive: 82%; with `CCN(CC)c1nc2n(c(=S)n1)CCS2`, inactive: 101%. Take `O=C(Nc1nnc(S(=O)(=O)N2CCCc3ccccc32)s1)c1ccccc1Cl`: the survival was inactive: 33%.

For `Cc1ccc(-n2nc(CO)c(C(=O)NC(C)CCCc3ccccc3)n2)cc1` (stereo not given), the survival was inactive: 96%. `CC(C)CC(NS(=O)(=O)c1ccc2c(c1)oc(=O)n2C)C(=O)NCc1ccccc1Cl` (stereo not given): the survival was inactive: 88%. Consider `CCCn1c(=O)sc2cc(NC(=O)c3ccc(OC)c(Br)c3)ccc21`, for which the survival was inactive: 79%. On to `CCCOc1ccc(CN(C(=O)Cc2coc3ccc(CC)cc23)C2CCS(=O)(=O)C2)cc1` (stereo not given), for which the survival is inactive: 80%. For the compound `COc1ccc(NC(=O)c2c(NCc3sccc3C)sc3c2CCCC3)c(OC)c1`, the survival was inactive: 83%.

Consider `CCc1nn2c(=O)cc(COC(=O)CNC(=O)COc3ccc(C)cc3)nc2s1`, for which the survival was inactive: 135%. Consider `CCC(=O)N1CCc2cc(S(=O)(=O)CCC(=O)N3CCN(c4ccc(Cl)cc4)CC3)ccc21`, for which the survival is inactive: 64%.

`Cc1ccc(NC(=O)CN2CCN(S(=O)(=O)c3ccc(C(C)C)cc3)CC2)cc1F`: the survival is inactive: 53%.

Take `OC1(c2cccc(C(F)(F)F)c2)CCN(c2ccc(-c3ccccc3)nn2)CC1`: the survival was inactive: 106%. `O=C1S/C(=C\c2ccccc2)C(=O)N1CN1CCOCC1`: the survival was inactive: 125%. Next, `Cc1cn(C)c(CC(=O)N2CCN(c3cccc(Cl)c3)CC2)c1C(=O)O`: inactive: 78%. Turning to `COc1ccc(Nc2nc(N)nc(N)c2S(=O)(=O)c2ccccc2)cc1`, the survival was inactive: 79%. In the case of `O=c1c2ccccc2n(Cc2ccccc2Cl)c(=O)n1CCc1ccccc1`, the survival is active: 15%.

On to `CCCN(CCC)C(=O)Cn1c(=O)n(-c2ccc(CC)cc2)c(=O)c2ccc(C(=O)NCCc3ccccc3)cc21`, for which the survival is inactive: 81%.

Take `CCOC(=O)c1ccc(Nc2nc3ccc(C(=O)c4ccccc4)cc3n3c(C)nnc23)cc1`: the survival was inactive: 120%. Take `COc1cccc(NC(=O)CSC2=Nc3ccccc3C3=NC(CCC(=O)NCCc4ccccc4)C(=O)N23)c1` (stereo not given): the survival is inactive: 49%. Consider `Cc1ccc(-n2cc(C(=O)Oc3cccc(C)c3)c3ccccc3c2=O)cc1`, for which the survival is inactive: 97%. For the compound `Cc1cccc(NC(=O)c2ccc3nc(C(C)C)oc3c2)c1C`, the survival was inactive: 128%. Turning to `CCCCCOc1ccc(Cn2c(=O)oc3ccccc32)cc1`, the survival was inactive: 120%. For the compound `COc1cc(Cl)c(NC(=O)CCS(=O)(=O)c2ccc3c(c2)NC(=O)CO3)c(OC)c1`, the survival is inactive: 57%. In the case of `O=C1CC(C(=O)Nc2ccccc2)C2(CCCC2)O1` (stereo not given), the survival was inactive: 98%. For the compound `Cc1ccc(NC(=O)C2CCCN(S(=O)(=O)c3ccc4c(c3)oc(=O)n4C)C2)cc1Cl` (stereo not given), the survival is inactive: 90%. With `CCOc1ccc(NC(=O)C(=O)c2cc(C)n(-c3cc(C)cc(C)c3)c2C)cc1`, the survival is inactive: 127%. In the case of `COc1ccc(-c2cc(C(=O)NCCc3ccccc3)c3c(-c4ccccc4)[nH]nc3n2)cc1OC`, the survival is inactive: 153%. As for `Cc1cc(C)nc(NNC(=O)c2ccccc2)n1`, the survival was inactive: 98%. As for `COc1ccc(CCNC(=O)c2ccc3c(c2)CCN3S(=O)(=O)c2ccc(C)cc2)cc1`, the survival was inactive: 89%. With `CC(C)(C)c1ccc(-c2ncccc2O)cc1`, the survival was inactive: 106%. Next, `CC(C)(C)OC(=O)N1CCC(c2c(C(=O)NC3CCN(Cc4ccccc4)CC3)cnn2-c2ccc(F)cc2F)CC1`: active: -4%; `COc1ccccc1CCNC(=O)C(=O)NCC(c1cccs1)S(=O)(=O)c1cccs1` (stereo not given): inactive: 73%; `COC(=O)CNc1cn[nH]c(=O)n1`: inactive: 96%.

`Cc1ccc(/C=C/c2onc(C)c2S(=O)(=O)N2CCC(C(=O)Nc3cc(C)ccc3C)CC2)cc1`: the survival is inactive: 68%. For the compound `CC(C)(C)C(=O)NC1CCNCC1`, the survival was inactive: 114%. Take `O=C1C2CCCC1C(c1ccc3c(c1)OCO3)NC2c1ccc2c(c1)OCO2` (stereo not given): the survival was inactive: 106%. For the compound `CCOc1ccc(S(=O)(=O)Nc2cccc(-c3ccc(OCC)nn3)c2)cc1`, the survival is inactive: 71%. On to `Cc1cccc(NC(=O)c2c(C)cc(C)nc2SCC(=O)c2ccccc2)c1`, for which the survival was inactive: 73%. For the compound `Cc1cc(C)c2oc(C(=O)Nc3ccc(S(=O)(=O)N4CCCCCC4)cc3)cc(=O)c2c1`, the survival is inactive: 72%. With `COc1ccc(S(=O)(=O)c2cn(C)c3ccc(C)cc3c2=O)cc1` the figure was inactive: 82%; with `O=C(Nc1ccc(F)cc1C(F)(F)F)C1CCN(c2ncccn2)CC1`, inactive: 87%; with `Cc1cccc(NC(=O)COC(=O)CCCC2=NS(=O)(=O)c3ccccc3N2)c1`, active: -4%. In the case of `O=C(Nc1ccc(S(=O)(=O)N2CCCCC2c2cccnc2)cc1)c1ccc(Br)cc1` (stereo not given), the survival was inactive: 73%. Next, `CCC1=Nc2cc(C(=O)NC3CCC(C)CC3)ccc2Sc2ccc(C)cc21` (stereo not given): inactive: 29%; `CCC1CN(C(=O)N2CCC(C(=O)NCc3cccc(OC)c3OC)CC2)c2cc(C)ccc2O1` (stereo not given): inactive: 106%; `CCOc1ccc(OCC)c(Nc2ccc3cc(S(=O)(=O)N4CCCC4)ccc3n2)c1`: inactive: 72%. With `O=C(C1CCCN(S(=O)(=O)c2cccc3nsnc23)C1)N1CCN(c2ccccc2F)CC1` (stereo not given) the figure was inactive: 68%. In the case of `CCC(C)NC(=O)CSc1nc2n[nH]c(C)c2c(=N)n1-c1cc(Cl)ccc1C` (stereo not given), the survival was inactive: 72%. Turning to `COc1ccccc1NC(=O)c1sc2nc(C)c(C(=O)Nc3ccc(C)cc3C)c(-c3ccco3)c2c1N`, the survival was inactive: 73%. Next, `CC(C)c1ccc(NC(=O)c2ccc(F)c(S(=O)(=O)N3CCc4ccccc43)c2)cc1`: inactive: 59%. In the case of `COc1ccccc1CNC(=O)c1cc2sccc2n1Cc1ccc(Cl)cc1`, the survival was inactive: 91%. Next, `COc1cccc(-c2noc(C3CC(=O)N(c4ccc(F)cc4)C3)n2)c1OC` (stereo not given): inactive: 81%; `Cc1ccc(NC(=O)c2ccc3[nH]c(C)cc(=O)c3c2)cc1`: inactive: 94%.

With `CSc1cccc(NC(=O)c2cccc(N3CCCS3(=O)=O)c2)c1`, the survival was inactive: 115%.
